Results on 54 compounds are retold here after ChEMBL document CHEMBL4888484, “Replenishing the malaria drug discovery pipeline: Screening and hit evaluation of the MMV Hit Generation Library 1 (HGL1) against asexual blood stage Plasmodium falciparum ,using a nano luciferase reporter read-out” (2022).

About 540 (0.36%) of roughly 150,000 compounds showed an effect of 50% or more. This is one part of the list.

The test deals with Plasmodium falciparum. Nature of the test: Primary screen in NF54 nanoGlo assay, in single point, at 2uM, 72h; a lower Z score goes with more inhibition. It is filed as functional, Erythrocyte. Particulars: timepoint 72 hour.
`O=C(c1cccc2ccccc12)N1CC(COc2ccc3c(c2)OCO3)C1`: the “% Inhibition” value turned out to be 5% and the Z score is on record as -0.77.

Consider `CN1CCC(N2CCN(C/C=C/c3ccc(F)cc3)C[C@@H]2CCO)CC1`, for which the “% Inhibition” value is -5% and the Z score was 0.58.

With `O=C1CC[C@@]2(CCCO2)CCN1Cc1ccc(F)cc1`, the “% Inhibition” value was -13% and the Z score worked out at 1.69.

Turning to `O=C(C#Cc1ccccc1)NCc1ccn2ccnc2c1`, the “% Inhibition” value is reported as -7% and the Z score came to 0.73.

`O=C(c1ccc(N2CCOCC2)nn1)N1CCN(c2ncccn2)CC1`: the “% Inhibition” value is -19% and the Z score amounted to 3.24.

Turning to `COCc1nccc(N(Cc2ccccn2)Cc2ccccc2C)n1`, the “% Inhibition” value is on record as 2% and the Z score was -0.3.

With `CC[C@H](O)CCNC(=O)c1cc(F)c(Cl)cc1F`, the “% Inhibition” value was found to be 19% and the Z score is -2.36.

On to `Cc1ncccc1CN1CCC(C(=O)N2CC(C)OC(C)C2)CC1` (stereo not drawn), for which the “% Inhibition” value is on record as -12% and the Z score came to 1.51.

`CCCCNc1ccccc1C(=O)N1CCC2(CCO2)CC1`: the “% Inhibition” value is 4% and the Z score is listed as -0.53.

With `COc1ccc(OC)c(-c2c([C@@H]3c4ccccc4C(=O)N3Cc3ccco3)c3ccccc3n2C)c1`, the “% Inhibition” value is listed as -8% and the Z score is recorded as 1.19.

For the compound `CCCCn1cnc2c(-c3ccccc3)cn(Cc3ccc(F)cc3)c2c1=O`, the “% Inhibition” value is -11% and the Z score worked out at 1.09.

For `N#Cc1oc2ccccc2c1NC(=O)CN1CCCCCC1`, the “% Inhibition” value is listed as -8% and the Z score came to 1.5.

As to `COc1ccc(O)c(C(=O)N2CCC3(CC2)c2nc[nH]c2CCN3C(C)=O)c1`, the “% Inhibition” value is -5% and the Z score worked out at 0.79.

Regarding `CCCc1nc(CNS(=O)(=O)c2ccc(-c3c(C)noc3C)s2)cs1`, the “% Inhibition” value is -25% and the Z score amounted to 2.56.

Take `Cc1nn(-c2ncnc3[nH]cnc23)c2c1[C@@H](c1ccc(C#N)cc1)CC(=O)N2`: the “% Inhibition” value is recorded as 5% and the Z score is -0.63.

Consider `CN(C)c1ncc(CN[C@H]2[C@H](c3ccccc3)C2(C)C)cn1`, for which the “% Inhibition” value is 10% and the Z score is -1.13.

`CC(C)n1nccc1NC(=O)c1c[nH]c2ccc(F)cc2c1=O`: the “% Inhibition” value was found to be 37% and the Z score was -4.19.

As for `Cc1nnsc1CN1C[C@@](C)(c2ccccc2)CCC1=O`, the “% Inhibition” value is given as -16% and the Z score was determined as 1.61.

For `O=C(NCC(O)c1ccc(-c2ccco2)cc1)C1CCOC1` (stereo not drawn), the “% Inhibition” value came out at 19% and the Z score is recorded as -2.58.

In the case of `Cc1ccsc1CN(Cc1c[nH]cn1)CC(C)C`, the “% Inhibition” value was -6% and the Z score came to 1.03.

As to `CCOC1CC(NCc2csc(N(C(C)=O)C3CC3)n2)C12CCC2` (stereo not drawn), the “% Inhibition” value was 9% and the Z score is -1.42.

On to `CC(c1ccccc1)C(CNC(=O)N1CCOCC1)NC(=O)N1CCOCC1` (stereo not drawn), for which the “% Inhibition” value is -5% and the Z score is on record as 0.65.

`NS(=O)(=O)c1ccc(-n2ccnc2-c2cccc3nonc23)cc1`: the “% Inhibition” value is listed as -2% and the Z score is given as 0.27.

With `CN(C)c1noc(CN(Cc2ccc(Cl)cc2)C2CC2)n1`, the “% Inhibition” value is given as -14% and the Z score is 1.64.

As to `Cc1cc(C)cc(-c2cn(CCc3n[nH]c(=O)[nH]3)nn2)c1`, the “% Inhibition” value is -5% and the Z score was 1.02.

In the case of `COc1cccc(NC(=O)Nc2ccc(OCc3ccccc3)cc2)c1`, the “% Inhibition” value is listed as 0% and the Z score is recorded as -0.05.

With `Cc1cc(C)nc(NC(=O)N(Cc2ccncc2)C2CC2)c1`, the “% Inhibition” value was -6% and the Z score stood at 0.5.

For the compound `O=c1c2cccn2ncn1Cc1ccc2c(c1)CCC2`, the “% Inhibition” value is -5% and the Z score was found to be 0.55.

`CS(=O)(=O)N1CCC[C@@]2(C1)OC(=O)c1ccccc12`: the “% Inhibition” value is on record as -9% and the Z score is recorded as 1.66.

As for `O=C(N[C@H]1CC(=O)N(c2ccccc2)C1)C1CCN(Cc2ccco2)CC1`, the “% Inhibition” value is given as -9% and the Z score is listed as 1.64.

As for `O=C(CCCCC(=O)n1cnc2ccccc21)n1cnc2ccccc21`, the “% Inhibition” value was 28% and the Z score is listed as -3.13.

`CCn1nc(C)cc1C(=O)Nc1n[nH]c(C)n1`: the “% Inhibition” value is listed as -5% and the Z score amounted to 0.54.

As for `O=C(c1ccccc1)N1CCCc2cc(S(=O)(=O)N3CCCC3)ccc21`, the “% Inhibition” value is recorded as -7% and the Z score is 0.91.

On to `Cc1nc(-c2c[nH]c(=O)c(Cl)c2)n(-c2ccc(S(N)(=O)=O)cc2)n1`, for which the “% Inhibition” value is -9% and the Z score is 1.09.

Regarding `O=c1ccn(-c2ccc(F)c(F)c2)nc1-c1nc(-c2ccc(F)c(Cl)c2)no1`, the “% Inhibition” value amounted to 7% and the Z score is given as -1.07.

Regarding `COc1ccc(-c2cc(N3CCN(C(=O)CCn4ccc(=O)[nH]c4=O)CC3)ncn2)cc1`, the “% Inhibition” value is given as -13% and the Z score was found to be 2.5.

Turning to `CN1CCN(c2nccn3nnnc23)C[C@@H]1CO`, the “% Inhibition” value is -16% and the Z score stood at 1.61.

In the case of `Cc1ccc(C#N)c(N2CCC(N3CCC[C@H](C(=O)N4CCCC4)C3)CC2)n1`, the “% Inhibition” value was found to be 8% and the Z score is reported as -1.05.

Consider `Cc1ccsc1CN(CCc1c[nH]c2ccccc12)Cc1nc(C(=O)NCc2ccccc2)co1`, for which the “% Inhibition” value was -3% and the Z score came out at 0.24.

Consider `CN1CC(=O)N2CCN(S(=O)(=O)c3ccc(F)cc3F)C[C@H]2C1=O`, for which the “% Inhibition” value is given as -18% and the Z score amounted to 1.84.

For `Cc1cc(C)c(NC(=O)Cn2nc3c(N(C)C4CCCCC4)nccn3c2=O)c(C)c1`, the “% Inhibition” value is given as -20% and the Z score was 1.97.

Consider `COc1cc(C)ccc1OCc1nc(C(=O)N(C)[C@@H](C)c2ccon2)co1`, for which the “% Inhibition” value turned out to be 8% and the Z score is given as -1.22.

With `COc1ccc(C)cc1NC(=O)c1cc(C)cc(O)n1`, the “% Inhibition” value was -11% and the Z score came out at 1.17.

With `Brc1ccc(-c2nc(NCc3ccccc3)cc(-c3ccccc3)n2)cc1`, the “% Inhibition” value is on record as -8% and the Z score is reported as 1.03.

As for `Cc1c(S(=O)(=O)Nc2ccccc2)c(C)n(C)c1-c1nnc(C2CCC2)o1`, the “% Inhibition” value was 7% and the Z score was -0.9.

On to `CCOC(=O)N1CCN(Cc2nc(Nc3ccc4c(c3)OCO4)c3cccc(C)c3n2)CC1`, for which the “% Inhibition” value is given as -10% and the Z score is on record as 1.39.

Regarding `Cc1c(CN2CCO[C@@H](CCN)C2)[nH]c2c(Cl)cccc12`, the “% Inhibition” value was -12% and the Z score worked out at 1.18.

Regarding `CN(CC1CCCC1O)C(=O)c1ccc(Cn2cc(Br)cn2)o1` (stereo not drawn), the “% Inhibition” value is given as -14% and the Z score was found to be 2.56.

As for `O=C(CN1CCOC1=O)N1CCCC[C@H](c2ccc(Cl)cc2)C1`, the “% Inhibition” value is recorded as 11% and the Z score was -1.39.

As for `O=C(CN1CCOCC1C1CCCC1=O)Nc1ccc(Br)cc1` (stereo not drawn), the “% Inhibition” value was -10% and the Z score is on record as 1.66.

With `CC(C)N(C(=O)CN(C)S(=O)(=O)c1ccc(Br)cc1)C(C)C`, the “% Inhibition” value is -4% and the Z score amounted to 0.39.

On to `CC(C)Nc1ncc(-c2nccn2-c2ccc(F)c(F)c2F)cn1`, for which the “% Inhibition” value was -18% and the Z score is reported as 2.11.

`O=C(Nc1ccc2oc(-c3cc(F)ccc3Br)nc2c1)N1CCOCC1`: the “% Inhibition” value is on record as -4% and the Z score stood at 0.61.

As for `Cc1ncoc1C(=O)N1CCC([C@H]2[C@@H](Oc3ccccc3)CN2C(C)C)CC1`, the “% Inhibition” value is 10% and the Z score is on record as -1.12.
